The record followed here is the supplement of paper PMC10986608.

The list shows a part of the results. Most values come without repeats; read them as rough.

For this test, the system named is Candida albicans DPL-15. Nature of the test: growth (OD600) after compound treatment (apparently relative to screen median) (relative growth (fraction; screen median 1.02)); DPL-15 is a caspofungin-resistant clinical isolate; higher = more fungal growth (less antifungal activity). The conditions noted are these: 25 µM; RPMI 1640; 48 h; 30 °C.
As for `COc1ccc(Cn2ncc(C(C)C)c2Nc2cc(O)cc(O)c2C(=O)N2Cc3ccccc3C2)cc1`, the growth turned out to be 1.09. As for `COC(=O)C1=C(C)N(C)C(NCc2ccc(C(F)(F)F)cc2)=NC1c1cccc(F)c1` (configuration not stated), the figure is 1.06.

Turning to `Nc1c(-c2ccc(F)cc2)cnc2c(-c3ccccn3)cnn12`, the growth was found to be 0.879.

Consider `CCCCCOS(=O)(=O)N(CC)CC`, for which the growth was found to be 1.18. On to `CCCCCN(C(=O)OC(C)(C)C)S(=O)(=O)NCC(F)(F)F`, for which the growth turned out to be 1.03. As for `COc1ccc(C2=CC(=O)C(c3ccc(Cl)cc3)C2)cc1` (configuration not stated), the figure is 1.06.

With `CC(C)CC1=NCCN(C)C2=C1C(c1ccc3c(c1)OCO3)N(Cc1ccccc1)C2=O` (configuration not stated), the growth came out at 0.938. As for `C=CC[C@@H](O)COc1cc2c(cc1C1(c3cc4c(cc3OC[C@H](O)CC=C)OCO4)C(=O)Nc3c(F)cccc31)OCO2`, the figure is 0.827; as for `C=CCC1=C2OC(C)(C)[C@@H](CC=C)C[C@]23C[C@H](CC=C)C(C)(C)OC3=C(C(=O)c2ccccc2)C1=O`, 1.07; as for `COCOc1cc(OC)c(OC)c2cc3oc(C)cc(=O)c3c(O)c12`, 0.951.

Take `COC(=O)c1ccc(C(C)(C)C)c(O)c1`: the growth was 1.05. As for `COC(=O)C1=C(C)N(Cc2cccc(C(F)(F)F)c2)C(NCC2CC2)=NC1c1ccc(Cl)cc1` (configuration not stated), the figure is 0.87.

Take `C=CCN1C(=O)C2=C(C(C(C)C)=NCC(C)(C)N2)C1c1ccc(F)cc1` (configuration not stated): the growth turned out to be 1.04. As to `COc1ccccc1N1C(=O)c2[nH]nc(CC(C)C)c2C1c1ccccc1Cl` (configuration not stated), the growth was 0.939. As for `C[C@H]1Cc2c(COc3ccccc3)nc3c(c2CO1)CN(C(=O)C1CCCCC1)CC3`, the figure is 0.885; as for `N#CCCn1cnc2c(Cl)ncnc21`, 1.1. As to `C[C@H](NS(=O)(=O)OCCCc1ccccc1)c1ccccc1`, the growth is 0.989. As for `COc1ccc(Cn2ccc3nc4cc(O)cc(O)c4c(=O)n32)cc1`, the figure is 1.27; as for `Cc1cc2c(nc1C)CCCN2S(=O)(=O)c1cccs1`, 0.978. As for `CC#CCOC[C@@H](NC(=O)CC1(CNC(=O)c2cccc(/C=N/NS(=O)(=O)c3ccc(C)cc3)c2)CCCCC1)c1ccccc1`, the figure is 0.997; as for `C[C@H]1Cc2c(-c3ccccc3)nc3c(c2CO1)CN(C(=O)c1cccnc1)CC3`, 1.34; as for `O=C(O)c1cc(=O)c2c(O)cccc2o1`, 1.1. As for `COc1ccc(OC)c2c(=O)oc(C)cc12`, the figure is 1.12; as for `CC(=O)C1=C(C)N(Cc2ccccc2)C(=S)NC1c1ccccc1` (configuration not stated), 0.977.

For `CC#CCN1C(=O)NC(c2ccccc2)C(C(C)=O)=C1C` (configuration not stated), the growth was found to be 1.02. On to `CC(=O)OC[C@@H]1OC(OC(C)=O)[C@@H](OC(C)=O)[C@H](OC(C)=O)[C@H]1OC(C)=O` (some centres not stated), for which the growth stood at 1.21. As for `COc1ccc(Cn2ncc(Cc3ccccc3)c2N)cc1`, the figure is 0.246; as for `C#CCC(C)(C)CNC(=O)CC1(CNC(=O)c2cccc(CO)n2)CCCCC1`, 1.13; as for `Cc1nn(-c2ccccc2)c2c1C(c1ccc3c(c1)OCO3)NC2=O` (configuration not stated), 0.997. As for `C=CC[C@@H](O)COc1cc2c(cc1C1(c3cc4c(cc3OC[C@H](O)CC=C)OCO4)C(=O)Nc3cc(F)ccc31)OCO2`, the figure is 1.01; as for `C=CCNc1cc(OC)cc(OC)c1C(=O)OCC(=O)c1ccc(OC)cc1`, 1.01.

Turning to `Clc1cc2ccccc2c(CCCc2ccccc2)n1`, the growth amounted to 1.11. With `COC(=O)C1=C(C)N(Cc2ccc(Cl)cc2)C(=S)NC1c1cccc(F)c1` (configuration not stated), the growth amounted to 0.871.

In the case of `CC1=C[C@H]2c3c(c(O)c(O)c4[nH]c5ccccc5c(=O)c34)[C@H](c3cc(O)c(O)c4[nH]c5ccccc5c(=O)c34)[C@H]2C(C)(C)C1`, the growth was determined as 1.03. As for `COC(=O)Cc1nnn2c1[C@H](C)[C@H](c1ccc(C)cc1)OCCC2`, the figure is 1.13; as for `COC[C@@H](Cc1ccc(OC)c(OC)c1)[C@@H](COC)Cc1ccc(OC)c(OC)c1`, 1.13; as for `Cc1ccc(C2c3c(CC(C)C)n[nH]c3C(=O)N2c2ccccc2)cc1` (configuration not stated), 0.962.

`COc1cc([C@H]2c3c(OC)c(O)c4oc5cccc(F)c5c(=O)c4c3[C@@H]3C=C(C)CC(C)(C)[C@H]23)c2c(=O)c3c(F)cccc3oc2c1O`: the growth amounted to 1.05.

For the compound `CC(C)CN1CCc2nc(-c3ccccc3)c(-c3ccccc3)cc2C1`, the growth turned out to be 0.733. As for `CC(C)C1=NCCN(C)C2=C1C(c1cccc(C(F)(F)F)c1)N(c1ccccc1)C2=O` (configuration not stated), the figure is 0.964; as for `COc1cc(F)ccc1C1c2c(CC(C)C)n[nH]c2C(=O)N1c1ccc(N(C)C)cc1` (configuration not stated), 0.909. As for `C=CCN1C(=O)C2=C(C(c3ccccc3)=NCCN2)C1c1ccc(Br)cc1` (configuration not stated), the figure is 0.902. As for `CC(=O)OC[C@H]1O[C@H](C#Cc2ccc(F)cc2)C=C[C@@H]1OC(C)=O`, the figure is 1.02; as for `COCO[C@H]1CCC(=O)C(C(=O)OC)=C1Sc1ccc(Br)cc1`, 1.09. For `COc1cc(OC)c2c(=O)c3cccc(OCC=C(C)C)c3oc2c1`, the growth stood at 0.86. As for `COC(=O)N[C@@H](c1cccc(F)c1)C(C(C)=O)C(=O)OC` (some centres not stated), the figure is 0.982; as for `CCOC(=O)C1C=CC(OC)=CC=C1C` (configuration not stated), 1.08; as for `C=CCN1C(=O)C2=C(C(CC(C)C)=NCC(C)(C)N2)C1c1ccc(C)cc1` (configuration not stated), 1.55.

Consider `Cc1cc2c(c(=O)o1)[C@@]1(C(=O)N(C)c3ccccc31)C1=C(CC(C)(C)OC1=O)O2`, for which the growth turned out to be 0.961. As for `C=CCN1C(=O)C2=C(C(CC(C)C)=NCC(C)(C)N2)C1c1ccc(Br)cc1` (configuration not stated), the figure is 1.05; as for `COc1ccc(N2C(=O)C3=C(C(c4ccccc4)=NCCN3C)C2c2ccccc2)cc1` (configuration not stated), 1.01. As to `c1ccc(CCCc2cccc(-c3ccccc3)n2)cc1`, the growth came to 1.08. On to `O=S(=O)(c1cccs1)N1CCCc2nc(-c3ccccc3)ccc21`, for which the growth was 0.903. Take `CC(=O)NCC1CNC(=O)CC2(CCCCC2)CNC(=O)c2cccc(c2)-c2cc(n[nH]2)CO1` (configuration not stated): the growth was 0.879. As for `CCOC(=O)c1cc2nc(/N=C/N(C)C)nc(O)c2nc1C(=O)OCC`, the figure is 1.12; as for `Cc1ccc(/C=C/C(=O)/C=C(O)/C=C/c2ccc(C)cc2)cc1`, 0.935. As for `CC(=O)OC[C@H]1O[C@H](C#Cc2cccc(Cl)c2)C=C[C@H]1OC(C)=O`, the figure is 0.988; as for `COC(=O)c1cc2c(c3c4ccccc4n(S(=O)(=O)c4cccc(C)c4)c13)C(=O)N(Cc1ccc(C)cc1)C2`, 0.865. As for `CC(C)(NS(=O)(=O)OCC(F)(F)F)c1ccccn1`, the figure is 1.1; as for `CCCc1cc2c(O)ccc(O)c2c(=O)o1`, 1.08.

In the case of `C[C@H]1C[C@H]2CC(=O)N[C@@H](Cc3ccccc3)C(=O)N2[C@H]1c1cccc(Br)c1`, the growth amounted to 1.08. As for `CC#CCN1C(=O)N(C)C(c2ccccc2)C(C(=O)OC)=C1C` (configuration not stated), the figure is 1.2; as for `C=CCN1C(=O)C2=C(C(C)=NCCN2C)C1c1cccc(C(F)(F)F)c1` (configuration not stated), 0.944.

As for `CCOC(=O)Cn1nnc(-c2ccc(C=O)cc2)n1`, the growth was determined as 0.988.

For the compound `CC#C/C(O)=C(/C(=O)OC)c1cc(OC)cc(OC)c1`, the growth worked out at 0.935.

As for `Cc1ccc(Cl)cc1NS(=O)(=O)c1c(C(=O)N2CCCC2)c(C)n(C)c1C`, the growth turned out to be 0.905.

For the compound `CC(=O)C1=C(C)N(Cc2ccccc2)C(=S)NC1c1ccc(F)cc1` (configuration not stated), the growth was determined as 0.915. As for `O=S(=O)(c1ccc(C(F)(F)F)cc1)N1CCCc2nc(-c3ccccc3)ccc21`, the figure is 0.935; as for `COC(=O)c1cc2nc(/N=C(\C)N(C)C)nc(O)c2nc1C(=O)OC`, 1.22; as for `O=C(/C=C/c1ccccc1)Nc1ccc2c(=O)c(Cc3cc4ccccc4s3)coc2c1`, 1.14.

Consider `COc1ccc([C@@]23Oc4cc(OC)cc(OC)c4[C@]2(O)[C@H](O)[C@H](C(=O)c2ccccc2)[C@H]3c2ccccc2)cc1`, for which the growth worked out at 1.

In the case of `COC(=O)[C@H]1[C@@H](O)[C@@]2(O)c3c(OC)cc(OC)cc3O[C@@]2(c2ccc(OC)cc2)[C@@H]1/C=C/c1ccccc1`, the growth was found to be 0.987. Turning to `COc1ccc([C@@]23Oc4cc(OC)cc(OC)c4[C@]2(O)[C@H](O)[C@H](C(=O)N(C)C)[C@H]3c2cccc(F)c2)cc1`, the growth was 1.44. As for `Cc1ccc(C2NC(=O)c3nn(-c4ccc(F)cc4)c(-c4ccccc4)c32)cc1` (configuration not stated), the figure is 0.945.

Turning to `COc1ccc(Cn2c(-c3ccc(OC)cc3)c(O)c(=O)c3ccccc32)cc1`, the growth was 0.99.

Regarding `COc1ccc(Cn2nc(C3CC3)cc2Nc2cc(O)cc(O)c2C(=O)N2Cc3cccnc3C2)cc1`, the growth came to 1.04. As for `CN1CCN=C(c2ccccc2)C2=C1C(=O)N(Cc1ccccc1)C2c1ccc2c(c1)OCO2` (configuration not stated), the figure is 0.999; as for `COc1ccc(N2C(=O)C3=C(C(C(C)C)=NCCN3)C2c2ccccc2)cc1` (configuration not stated), 0.991; as for `CC(C)CCc1cc(OCc2nn[nH]n2)cc2oc3ccccc3c(=O)c12`, 1.03. For `C#CCN1C(=O)N(C(C)=O)C(c2ccccc2)C(C(C)=O)=C1C` (configuration not stated), the growth amounted to 0.987.

Consider `COC(=O)c1nnc(C(=O)OC)c2c1[nH]c1ccc(OC)cc12`, for which the growth was 1.07. As for `CC(C)(C)c1ccc(C#C[C@@H]2C=C[C@H](O)[C@@H](CO)O2)cc1`, the figure is 1.05.
